The results in this text go back to the supplement of paper PMC9446081.

Structures are written as SMILES. Among all 39,000 compounds or so, about 220 (0.56%) showed activity. The list shows a part of the results.
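Further: static incubation at 37 °C against the wild-type strain, values averaged over two biological replicates.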

This assay concerns Escherichia coli K-12 BW25113. Briefly: relative growth (OD600 normalised to plate interquartile mean) (fraction); higher = less growth inhibition, active = 0.2 or less. To be noted: 50 µM; LB; incubation time: overnight (16-24 h).
For `O=C(CN1CCOCC1)N[C@@H]1CC[C@H](CCn2cc(C3CCCC3)nn2)O[C@H]1CO`, the relative growth is inactive: 1.03.

As to `COC(=O)CCCCCCNC(=O)c1ccc(NCc2cn(Cc3ccc(C(=O)c4ccc(Cn5cc(CNc6ccc(C(=O)NCCCCCCC(=O)OC)cc6)nn5)cc4)cc3)nn2)cc1`, the relative growth was inactive: 0.899.

Turning to `C[C@@H]1CN([C@@H](C)CO)C(=O)c2cc(C#Cc3ccccc3F)cnc2O[C@H]1CN(C)S(=O)(=O)c1ccccc1`, the relative growth was inactive: 1.01.

As for `C[C@@H]1CN([C@@H](C)CO)C(=O)Cc2cc(NS(=O)(=O)c3ccccc3)ccc2O[C@@H]1CN(C)Cc1ccc(Oc2ccccc2)cc1`, the relative growth was inactive: 0.927.

As for `CNC(=O)C[C@@H]1CC[C@@H]2[C@H](COC[C@H](O)CN2C(=O)c2ccccn2)O1`, the relative growth was inactive: 0.963.

Take `CN(C)C(=O)C[C@@H]1CC[C@H](NC(=O)C2CCOCC2)[C@@H](CO)O1`: the relative growth was inactive: 0.998.

As for `CCC(=O)c1c(O)cc(O)cc1O`, the relative growth is inactive: 1.06.

On to `CCc1c(C)[nH]c2c1C(=O)C(CN1CCOCC1)CC2.Cl` (stereo unspecified), for which the relative growth was inactive: 1.11.

For the compound `C[C@@H](O)/C=C/c1cccc[n+]1C`, the relative growth is inactive: 0.971.

On to `Cc1noc(C)c1NC(=O)Nc1cccc2c1O[C@H](CN(C)C(=O)NC(C)C)[C@H](C)CN([C@@H](C)CO)C2=O`, for which the relative growth was inactive: 0.993.

Regarding `Cc1noc(C)c1NC(=O)Nc1ccc2c(c1)C(=O)N([C@H](C)CO)C[C@H](C)[C@H](CN(C)C(=O)Nc1ccc(F)cc1)OCCCC[C@@H](C)O2`, the relative growth was inactive: 0.993.

As for `O=C(CCCCCC(=O)N/N=C/[C@H](O)[C@@H](O)[C@H](O)CO)NO`, the relative growth is inactive: 1.

With `CN1C(=O)c2cc(NC(=O)C3CCOCC3)ccc2OC[C@H]2O[C@H](CC(=O)NCCc3ccncc3)CC[C@@H]21`, the relative growth is inactive: 0.986.

Regarding `C[C@@H]1CN([C@@H](C)CO)C(=O)c2cc(NS(=O)(=O)c3ccc(F)cc3)ccc2O[C@H]1CN(C)Cc1ccc(Cl)c(Cl)c1`, the relative growth is inactive: 0.962.

For the compound `C[C@@H]1CN([C@H](C)CO)C(=O)CCCn2nncc2CO[C@@H]1CN(C)Cc1ccc(C(=O)Nc2ccccc2N)cc1`, the relative growth is inactive: 0.969.

For `CC[C@@H]1OC(=O)[C@H](C)[C@@H](O[C@H]2C[C@@](C)(OC)[C@@H](O)[C@H](C)O2)[C@H](C)[C@@H](O[C@@H]2O[C@H](C)C[C@H](N(C)C)[C@H]2O)[C@](C)(O)C[C@@H](C)/C(=N\OCOCCOC)[C@H](C)[C@@H](O)[C@]1(C)O`, the relative growth was active: 0.165.

`COc1ccc(S(=O)(=O)Nc2cccc3c2O[C@@H](CN(C)Cc2ccc(-c4ccccc4)cc2)[C@H](C)CN([C@@H](C)CO)C3=O)cc1`: the relative growth is inactive: 1.03.

As for `O=C(c1ccccc1Cl)N(c1ccc2oc(=O)sc2c1)S(=O)(=O)c1ccc(Br)cc1`, the relative growth was inactive: 1.02.

For `C[C@H](CO)N1C[C@H](C)[C@@H](CN(C)CC2CC2)OCCCC[C@H](C)Oc2ccc(NC(=O)NC3CCCCC3)cc2C1=O`, the relative growth was inactive: 0.982.

For the compound `Cc1ccc(S(=O)(=O)Nc2ccc3c(c2)C(=O)N([C@@H](C)CO)C[C@H](C)[C@@H](CN(C)C(=O)Nc2ccccc2)OCCCC[C@@H](C)O3)cc1`, the relative growth was inactive: 1.01.

Consider `COc1ccc(S(=O)(=O)Nc2ccc3c(c2)CC(=O)N([C@@H](C)CO)C[C@H](C)[C@H](CN(C)S(=O)(=O)c2ccccc2)O3)cc1`, for which the relative growth was inactive: 1.01.

Take `CCC1OC(=O)C(C)C(OC2CC(C)(OC)C(O)C(C)O2)C(C)C(OC2OC(C)CC(N(C)C)C2O)C(C)(O)CC(C)C2NC(COCCOC)OC(C2C)C1(C)O` (stereo unspecified): the relative growth is inactive: 0.433.

As for `Cc1ccc(S(=O)(=O)N(C)C[C@H]2Oc3ccc(NC(=O)CCCN(C)C)cc3C(=O)N([C@@H](C)CO)C[C@@H]2C)cc1`, the relative growth was inactive: 0.981.

As for `Cc1ccc(N(CC(=O)O)S(C)(=O)=O)cc1`, the relative growth is inactive: 0.973.

Regarding `O=C(C[C@@H]1CC[C@@H]2[C@H](COC[C@@H](O)CN2S(=O)(=O)c2ccc(F)cc2)O1)N[C@H]1CCN(Cc2ccccc2)C1`, the relative growth is inactive: 1.

`CC(C)CC#Cc1cnc2c(c1)C(=O)N([C@@H](C)CO)C[C@@H](C)[C@H](CN(C)S(=O)(=O)c1cccs1)O2`: the relative growth is inactive: 1.

In the case of `FC(F)(Cl)C(F)(F)Cl`, the relative growth is inactive: 1.05.

In the case of `NCCC(=O)N1c2ccccc2Sc2ccccc21`, the relative growth is inactive: 0.932.

Regarding `O=S1(=O)N[C@H]2CCCN2c2ccccc21`, the relative growth is inactive: 0.846.

For the compound `CN(C)CCCNC(=O)C[C@@H]1C=C[C@@H](NS(=O)(=O)c2ccccc2)[C@@H](CO)O1`, the relative growth was inactive: 1.02.

As for `C[C@H]1CN([C@@H](C)CO)C(=O)CCCn2nncc2CO[C@H]1CN(C)C(=O)Nc1ccnc(N2CCOCC2)c1`, the relative growth is inactive: 1.03.

For `C[C@@H]1CN([C@H](C)CO)C(=O)c2cccc(NC(=O)C3CCOCC3)c2O[C@@H]1CN(C)S(=O)(=O)c1cn(C)cn1`, the relative growth was inactive: 0.98.

For the compound `COc1cccc(S(=O)(=O)Nc2ccc3c(c2)[C@@H]2C[C@@H](CC(=O)NC4CCCCC4)O[C@H](CO)[C@@H]2O3)c1`, the relative growth was inactive: 0.962.

Regarding `CC(C)NC(=O)Nc1ccc2c(c1)C(=O)N(C)[C@H]1CC[C@H](CC(=O)NCc3ccc(F)cc3)O[C@H]1CO2`, the relative growth was inactive: 0.984.

As for `N=C(N)/N=C(\N)N1CCOCC1`, the relative growth is inactive: 0.999.

As to `COc1ccc(NC(=O)N(C)C[C@@H]2Oc3ccc(NC(=O)Nc4ccc(C(F)(F)F)cc4)cc3CC(=O)N([C@H](C)CO)C[C@H]2C)cc1`, the relative growth is inactive: 1.01.

Turning to `O=C(C[C@H]1C=C[C@@H](NC(=O)Cc2ccccn2)[C@@H](CO)O1)NCCCN1CCOCC1`, the relative growth was inactive: 0.987.

In the case of `C/C=C/c1ccc2c(c1)O[C@@H](CN(C)C(=O)c1ccc3c(c1)OCO3)[C@@H](C)CN([C@H](C)CO)S2(=O)=O`, the relative growth is inactive: 1.01.

For the compound `C[C@H]1CN([C@@H](C)CO)C(=O)c2cccc(NC(=O)c3ccncc3)c2O[C@@H]1CN(C)Cc1ccc2c(c1)OCO2`, the relative growth was inactive: 0.991.

For the compound `C[C@H]1CN([C@@H](C)CO)C(=O)Cc2cc(NC(=O)CCCN(C)C)ccc2O[C@@H]1CN(C)Cc1ccc(Oc2ccccc2)cc1`, the relative growth was inactive: 1.06.

On to `Cc1cc(NC(=O)CSc2nnc[nH]2)no1`, for which the relative growth is inactive: 0.989.

For `O=C1CN(S(=O)(=O)Cc2ccccc2)C[C@H]2[C@@H](c3ccc(C#Cc4cccc(F)c4)cc3)[C@@H](CO)N12`, the relative growth was inactive: 1.02.

In the case of `C[C@H](CO)N1C[C@H](C)[C@@H](CN(C)S(=O)(=O)c2ccc(Cl)cc2)OCCCC[C@H](C)Oc2ccc(NC(=O)Cc3ccccc3)cc2C1=O`, the relative growth was inactive: 0.995.

With `C[C@@H]1CCCCO[C@@H](CN(C)Cc2ccncc2)[C@H](C)CN([C@@H](C)CO)C(=O)c2cc(NC(=O)Nc3ccccc3)ccc2O1`, the relative growth was inactive: 0.982.

For `Nc1ccc(S(=O)(=O)Nc2ccnn2-c2ccccc2)cc1`, the relative growth is inactive: 0.856.

As for `C[C@@H]1CN([C@@H](C)CO)C(=O)Cc2cc(NS(=O)(=O)c3cccs3)ccc2O[C@H]1CN(C)Cc1ccncc1`, the relative growth is inactive: 0.968.

For the compound `C[C@H](CO)N1C[C@H](C)[C@@H](CN(C)Cc2ccc(Cl)c(Cl)c2)Oc2ccc(NC(=O)Nc3ccc(C(F)(F)F)cc3)cc2C1=O`, the relative growth is inactive: 1.

Take `C[C@@H]1CN([C@@H](C)CO)S(=O)(=O)c2ccc(Br)cc2O[C@H]1CN(C)C(=O)c1cnccn1`: the relative growth is inactive: 0.983.

In the case of `CC(C)NC(=O)Nc1cccc2c1O[C@H](CN(C)Cc1ccc(-c3ccccc3)cc1)[C@@H](C)CN([C@@H](C)CO)C2=O`, the relative growth was inactive: 0.997.

On to `Cc1noc(C)c1S(=O)(=O)Nc1ccc2c(c1)CC(=O)N([C@H](C)CO)C[C@@H](C)[C@@H](CN(C)Cc1ccccc1)O2`, for which the relative growth is inactive: 1.01.

In the case of `O=C(C[C@H]1CC[C@@H]2[C@H](COC[C@@H](O)CN2C(=O)c2cnccn2)O1)N1CCN(c2ccccc2)CC1`, the relative growth is inactive: 1.01.

Regarding `COc1ccc(S(=O)(=O)N(C)C[C@@H]2Oc3ccc(NS(=O)(=O)c4c(C)noc4C)cc3C(=O)N([C@H](C)CO)C[C@@H]2C)cc1`, the relative growth is inactive: 0.996.

With `C[C@@H]1CCCCO[C@@H](CN(C)Cc2ccccc2)[C@@H](C)CN([C@@H](C)CO)C(=O)c2cc(NC(=O)NC3CCCCC3)ccc2O1`, the relative growth was inactive: 1.

Regarding `C[N+](C)(C)CCCCCCNC(=O)[C@@H]1C[C@@H]2C(=O)N[C@@H](CCCC[N+](C)(C)C)C(=O)N2[C@@H]1c1ccc(O)cc1`, the relative growth is inactive: 1.03.

Turning to `COc1ccc(NC(=O)N(C)C[C@H]2OCCCC[C@@H](C)Oc3ccc(NS(=O)(=O)c4ccccc4)cc3C(=O)N([C@@H](C)CO)C[C@H]2C)cc1`, the relative growth was inactive: 1.04.

For the compound `C/C(=C\C(=O)OCCCCCCCCC(=O)O)C[C@@H]1OC[C@H](C[C@@H]2O[C@H]2[C@@H](C)[C@H](C)O)[C@@H](O)[C@H]1O`, the relative growth is active: 0.166.

`C[C@H]1CN([C@@H](C)CO)C(=O)Cc2cc(NS(C)(=O)=O)ccc2O[C@H]1CN(C)S(C)(=O)=O`: the relative growth was inactive: 0.999.

For the compound `C[C@@H]1CN([C@H](C)CO)C(=O)c2cc(NC(=O)Nc3ccc(C(F)(F)F)cc3)ccc2O[C@H]1CN(C)S(=O)(=O)c1ccc(F)cc1`, the relative growth is inactive: 1.03.

Turning to `Cc1ccc(S(=O)(=O)Nc2ccc3c(c2)C(=O)N([C@H](C)CO)C[C@H](C)[C@H](CN(C)C(=O)Nc2ccc(F)cc2)OCCCC[C@H](C)O3)cc1`, the relative growth was inactive: 1.04.

For `C[C@H](CO)N1C[C@H](C)[C@H](CN(C)C(=O)Nc2ccc(C(F)(F)F)cc2)Oc2c(NC(=O)C3CCCCC3)cccc2C1=O`, the relative growth is inactive: 0.972.

As to `C[C@@H]1CN([C@H](C)CO)C(=O)c2cc(Br)cnc2O[C@H]1CN(C)C(=O)Nc1ccccc1F`, the relative growth was inactive: 0.965.
